Out of some 110,000 compounds screened, about 230 (0.21%) showed an effect of 50% or more. The list shows a part of the results.
The compounds below were run against DPAP1 (Plasmodium falciparum, UniProt Q8IIJ9) (assay: primary screen, percent inhibition; read by cleavage of a fluorogenic dipeptide substrate; higher = more effect of the substance).
Chain of DPAP1 (Q8IIJ9 whole entry, looked up): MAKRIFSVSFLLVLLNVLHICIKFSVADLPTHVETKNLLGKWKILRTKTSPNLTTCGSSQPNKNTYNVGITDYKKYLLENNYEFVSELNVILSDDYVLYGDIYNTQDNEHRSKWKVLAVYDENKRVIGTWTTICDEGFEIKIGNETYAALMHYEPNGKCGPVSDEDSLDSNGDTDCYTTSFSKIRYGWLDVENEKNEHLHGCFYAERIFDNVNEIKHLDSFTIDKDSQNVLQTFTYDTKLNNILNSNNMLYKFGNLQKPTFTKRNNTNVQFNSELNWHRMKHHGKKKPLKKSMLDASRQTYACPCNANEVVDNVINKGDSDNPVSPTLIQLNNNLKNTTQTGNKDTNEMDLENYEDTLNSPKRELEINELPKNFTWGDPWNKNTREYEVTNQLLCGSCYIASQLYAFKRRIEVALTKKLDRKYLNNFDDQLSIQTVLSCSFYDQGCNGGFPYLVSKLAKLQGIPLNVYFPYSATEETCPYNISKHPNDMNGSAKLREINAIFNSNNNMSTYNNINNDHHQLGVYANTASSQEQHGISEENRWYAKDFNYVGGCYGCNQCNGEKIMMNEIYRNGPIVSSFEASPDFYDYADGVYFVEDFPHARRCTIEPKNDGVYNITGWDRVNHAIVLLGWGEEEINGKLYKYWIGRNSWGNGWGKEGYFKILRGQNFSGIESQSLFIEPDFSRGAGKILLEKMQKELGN
Set-up: species or system P. falciparum D10 trophozoite lysates; single well
For CC1(C)Cc2c(oc(N)c2C#N)CS1, the “% Inhibition @ 10 uM” value was 2.51%.
For CC(C)Cn1c(=N)c(C#N)cc2c(=O)n3ccccc3nc21, the “% Inhibition @ 10 uM” value was -2.64%.
CCCn1c(=O)c2sccc2n2c(CCCC(=O)N3CCc4ccccc4C3)nnc12 was tested, and the “% Inhibition @ 10 uM” value was -2.44%.
With O=C(NCc1ccco1)c1ccc2c(c1)ncn2-c1ccc(F)cc1F the “% Inhibition @ 10 uM” value was 7.3%.
With CCO/C(O)=C1\C(C)=NC2=C(C(=O)CCC2)C1c1ccsc1 (stereo not shown) the “% Inhibition @ 10 uM” value was -3.5%.
Cc1onc(-c2ccccc2)c1C(=O)NCc1ccco1 was tested, and the “% Inhibition @ 10 uM” value was -0.00273%.
Cc1[nH]c2c(cc(C)c3nc(O)cc(C(F)(F)F)c32)c1C was tested, and the “% Inhibition @ 10 uM” value was 2.18%.
With CCN(CC)C(=O)Cn1cc(SCC(=O)N2CCOCC2)c2ccccc21 the “% Inhibition @ 10 uM” value was 2.99%.
For COc1ccc(N2CCN(C(=O)c3ccc(OC4CCCC4)cc3)CC2)cc1, the “% Inhibition @ 10 uM” value was -2.09%.
CN1CCN(C(=O)Cn2ncc3c2-c2ccccc2OC3)CC1 was tested, and the “% Inhibition @ 10 uM” value was -7.18%.
For Cc1c(CN(C)Cc2cccc3ccccc23)c(=O)n(-c2ccccc2)n1C, the “% Inhibition @ 10 uM” value was -4.95%.
In the case of CC(C)(C)C1CCC(OC(=O)CCC(=O)N2CCCCC2)CC1 (stereo not shown), the “% Inhibition @ 10 uM” value is reported as -1.76%.
For COc1cc(/C=C2\S/C(=N/c3ccc(Cl)cc3)N(C)C2=O)ccc1OCC(=O)O, the “% Inhibition @ 10 uM” value was 1.15%.
In the case of CC1=C(C(=O)OC2CCCCCCC2)C(c2ccccc2C)CC(=O)N1 (stereo not shown), the “% Inhibition @ 10 uM” value is reported as 1.39%.
In the case of CCN(CC)C(=O)CN(c1ccc(F)cc1)S(=O)(=O)c1ccc(C)cc1, the “% Inhibition @ 10 uM” value is reported as -1.27%.
In the case of CCN1CCN(c2ccc(NC(=O)C(C)C)cc2Cl)CC1, the “% Inhibition @ 10 uM” value is reported as 1.28%.
In the case of CC1CCCCC1NC(=O)Cn1c2c(c(-c3ccccc3Cl)cc1=O)CCC2 (stereo not shown), the “% Inhibition @ 10 uM” value is reported as 2.35%.
Cl/C(=C\c1ccccc1)CN1CCN(c2ccc(Cl)cc2)CC1 was tested, and the “% Inhibition @ 10 uM” value was -0.0494%.
With CC(C)Oc1ccccc1C1NC(C(=O)O)CS1 (stereo not shown) the “% Inhibition @ 10 uM” value was -0.25%.
For CC(CN1CCN(Cc2ccccc2)CC1)OC(=O)c1cc2ccccc2o1 (stereo not shown), the “% Inhibition @ 10 uM” value was -3.64%.
With COc1ccc2c(c1)CN(C)c1ccc(C)cc1CN2C the “% Inhibition @ 10 uM” value was -3.85%.
With CCSc1nc(O)c2c(n1)N=C1CC(C)(C)CC(O)=C1C2c1cccs1 (stereo not shown) the “% Inhibition @ 10 uM” value was -4.78%.
In the case of CC1=C(C(=O)OCc2ccc(C)cc2)C(c2ccccc2OC(C)C)NC(=O)N1 (stereo not shown), the “% Inhibition @ 10 uM” value is reported as 25.8%.
Nc1cc(C(=O)N2CCOCC2)cc(C(=O)N2CCOCC2)c1 was tested, and the “% Inhibition @ 10 uM” value was -2.98%.
With Cc1ccc(N(CC(=O)Nc2ccc(Cl)cc2)S(C)(=O)=O)cc1Cl the “% Inhibition @ 10 uM” value was -7.5%.
For N#C/C(=C\c1ccc(O)cc1)c1nc(-c2ccc(-c3ccccc3)cc2)cs1, the “% Inhibition @ 10 uM” value was 4.12%.
CS(=O)(=O)c1nc(S(=O)(=O)c2ccc(Cl)cc2)c(NCCc2c[nH]c3ccccc23)s1 was tested, and the “% Inhibition @ 10 uM” value was -5.89%.
CCOC(=O)c1cnc(-c2ccccc2)nc1N1CCc2[nH]ncc2C1 was tested, and the “% Inhibition @ 10 uM” value was 5.58%.
In the case of O=C(Nc1ccccc1)Nc1ccc(S(=O)(=O)N2CCCCC2)cc1, the “% Inhibition @ 10 uM” value is reported as 14.5%.
COc1cccc(C(=O)Nc2cc(C)on2)c1OC was tested, and the “% Inhibition @ 10 uM” value was -5.6%.
CCCn1ncc(SC)c(O)c1=O was tested, and the “% Inhibition @ 10 uM” value was -5.9%.
Cc1ccc(C2=N/C(=C\c3cccnc3)C(=O)O2)cc1 was tested, and the “% Inhibition @ 10 uM” value was 1.81%.
In the case of Fc1ccccc1N1CCN(Cc2cccc(Cl)c2Cl)CC1, the “% Inhibition @ 10 uM” value is reported as 1.55%.
For CC(C)C(NC(=O)/C(=C/c1ccc2c(c1)OCO2)NC(=O)c1ccccc1)C(=O)O (stereo not shown), the “% Inhibition @ 10 uM” value was -4.7%.
With CSC1=NP(=S)(SC)N2CCCC2=C1C#N (stereo not shown) the “% Inhibition @ 10 uM” value was 23.9%.
In the case of COc1ccc(C2C3=C(O)CCCC3=NC(C)=C2C(=O)N2CCOCC2)cc1Br (stereo not shown), the “% Inhibition @ 10 uM” value is reported as 2.51%.
COc1ccc2c(CNCc3ccccc3Cl)c(C(=O)O)n(C)c2c1 was tested, and the “% Inhibition @ 10 uM” value was -3.86%.
For COc1cc(/C=C2/C(=N)N3OC(C)=CC3=NC2=O)ccc1OCCCOc1ccccc1Cl, the “% Inhibition @ 10 uM” value was -3.23%.
With Cc1cccc(C(=O)NC2(C(F)(F)F)C(=O)N(Cc3ccccn3)C3=C2C(=O)CC(C)(C)C3)c1 (stereo not shown) the “% Inhibition @ 10 uM” value was -1.72%.
For O=S(=O)(c1ccccc1)c1ccc(-n2ccnc2)cc1, the “% Inhibition @ 10 uM” value was -4.23%.
For O=C(c1cccs1)N1CCN(c2ccc([N+](=O)[O-])cc2)CC1, the “% Inhibition @ 10 uM” value was -3.65%.
For CC1(C)CC(=O)C2=C(C1)NC(=O)CC2c1cc(F)cc(F)c1 (stereo not shown), the “% Inhibition @ 10 uM” value was 3.67%.
Cc1cccn2c(=O)c3cc(C#N)c(=O)n(CC(C)C)c3nc12 was tested, and the “% Inhibition @ 10 uM” value was 1.12%.
With O=Cc1c(C(=O)O)n(CCC(=O)O)c2ccccc12 the “% Inhibition @ 10 uM” value was 3.24%.
For CC(Nc1nc2c(c(=O)n(C)c(=O)n2C)n1Cc1ccccc1Cl)c1ccccc1 (stereo not shown), the “% Inhibition @ 10 uM” value was 1.9%.
For O=C(c1ccc(Br)o1)N1CCCc2ccccc21, the “% Inhibition @ 10 uM” value was 3%.
Cc1ccc(CNC(=O)c2cc(-c3ccc(C)c(C)c3)[nH]n2)o1 was tested, and the “% Inhibition @ 10 uM” value was 7.04%.
CCCCN1C(=O)S/C(=C\c2c(NCCCO)nc3ccccn3c2=O)C1=O was tested, and the “% Inhibition @ 10 uM” value was 6.97%.
In the case of Cc1sc2nc(SCCCC(=O)NCCO)nc(N)c2c1C, the “% Inhibition @ 10 uM” value is reported as -1.19%.
In the case of COc1ccc(C(=O)NCc2nnc(SCC(=O)N3CCC(C)CC3)o2)cc1, the “% Inhibition @ 10 uM” value is reported as 6.35%.
CCOc1ccccc1N1CCN(Cc2ccoc2)CC1 was tested, and the “% Inhibition @ 10 uM” value was -4.35%.
CN(C)c1ccc(/C=C/CN2CCN(c3ccc(Cl)cc3)CC2)cc1 was tested, and the “% Inhibition @ 10 uM” value was -2.95%.
With CC1(C)CC(=O)C2=C(C1)OC(N)=C(C#N)C2c1ccc(OCc2ccccc2)cc1 (stereo not shown) the “% Inhibition @ 10 uM” value was 1.02%.
In the case of CCc1ccc(C2NC(=O)c3ccccc3O2)cc1 (stereo not shown), the “% Inhibition @ 10 uM” value is reported as 5.98%.
CCN(CC)C(=O)c1ccc([N+](=O)[O-])o1 was tested, and the “% Inhibition @ 10 uM” value was -3.52%.
For CC(C)(C)NS(=O)(=O)c1ccc(OCC(=O)N2CCc3ccccc3C2)cc1, the “% Inhibition @ 10 uM” value was -5.54%.
In the case of COc1ccc(NC(=O)c2ccc(OC(C)C(=O)O)cc2)cc1 (stereo not shown), the “% Inhibition @ 10 uM” value is reported as 2.76%.
With CC(C(=O)NCCc1ccc(Cl)cc1)n1c2ccccc2c2cnn(C)c(=O)c21 (stereo not shown) the “% Inhibition @ 10 uM” value was -3.79%.
In the case of O=C1C2C3CCC(O3)C2C(=O)N1c1ccccn1 (stereo not shown), the “% Inhibition @ 10 uM” value is reported as 5.53%.
For CCC(C(=O)O/N=C(\N)c1cccnc1)c1ccccc1 (stereo not shown), the “% Inhibition @ 10 uM” value was -2.92%.
CN1CCN(Cc2ccc(Cl)cc2Cl)CC1 was tested, and the “% Inhibition @ 10 uM” value was 3.25%.
For O=C(COc1cccc2cccnc12)N1CCc2ccccc21, the “% Inhibition @ 10 uM” value was -2.29%.
For Cc1ccc(C(=O)N2CCN(C)CC2)cc1C, the “% Inhibition @ 10 uM” value was 3.09%.
With O=C(c1nc(-c2cccc(F)c2)n2c1CCCCC2)N1CCN(c2ncccn2)CC1 the “% Inhibition @ 10 uM” value was 6.2%.
In the case of O=C(CN1C(=O)c2ccccc2C1=O)N1CCN(C/C=C/c2ccccc2)CC1, the “% Inhibition @ 10 uM” value is reported as 3.27%.
For O=C(O)CNC(=O)NC12CC3CC(CC(C3)C1)C2, the “% Inhibition @ 10 uM” value was 1.12%.
In the case of Cc1s/c(=N\C(=O)c2cccnc2)n(C)c1-c1ccccc1, the “% Inhibition @ 10 uM” value is reported as -3.25%.
With O=C1CCCN1CCCn1cnc2c3cc(Cl)ccc3nc-2c1O the “% Inhibition @ 10 uM” value was -13.4%.
For CCN1C/C(=C\c2ccc(OC)cc2OC)C(=O)/C(=C/c2ccc(OC)cc2OC)C1, the “% Inhibition @ 10 uM” value was -3.79%.
OCCc1c(-c2ccccc2)n(Cc2ccccc2)c2ccccc12 was tested, and the “% Inhibition @ 10 uM” value was -1.76%.
With CC(=O)N1CCc2c(sc3c2c(=O)n(CCc2ccccc2)c(=O)n3Cc2cc(C)ccc2C)C1 the “% Inhibition @ 10 uM” value was -7.18%.
In the case of CC(C)OCCCn1c(=O)c2ccccc2n2c(CCC(=O)NCc3ccc4c(c3)OCO4)nnc12, the “% Inhibition @ 10 uM” value is reported as 3.54%.
CSc1ccc(CN2CCN(c3ccc(Cl)cc3)CC2)cc1 was tested, and the “% Inhibition @ 10 uM” value was -2.81%.
CCOC(=O)c1nnn(-c2ccc(OCC)cc2)c1C(=O)OCC was tested, and the “% Inhibition @ 10 uM” value was -5.27%.
For CCOc1ccc(C2C(C(=O)Nc3cccnc3)=C(C)Nc3nc(SCc4ccccc4)nn32)cc1 (stereo not shown), the “% Inhibition @ 10 uM” value was -1.2%.
In the case of CC1=C(C(=O)Nc2ccccc2)C(c2ccccc2)C(C#N)=C(SCc2ccccc2)N1 (stereo not shown), the “% Inhibition @ 10 uM” value is reported as 7.47%.
With COc1ccc(Cl)cc1-n1c(SCc2cccc(F)c2)nc2nncc-2c1O the “% Inhibition @ 10 uM” value was 0.238%.
CC(C)C(O)(c1ccccc1)C(CN1CCOCC1)c1ccccc1 (stereo not shown) was tested, and the “% Inhibition @ 10 uM” value was -0.551%.
For COc1ccc(CC(=O)Nc2c3c(nn2-c2cccc(C)c2C)CS(=O)(=O)C3)cc1, the “% Inhibition @ 10 uM” value was 12.2%.
With CC12C=CC3(CN(Cc4ccccc4)C(=O)C3C1C(=O)NCc1ccco1)O2 (stereo not shown) the “% Inhibition @ 10 uM” value was -3.94%.
For Cc1ccc(CSc2nc(C)c3c(n2)CCCC3)cc1, the “% Inhibition @ 10 uM” value was 0.189%.
For CCCC[C@H](NC(=O)c1cccc(NC(=O)OC(C)(C)C)c1)C(=O)NCC#N, the “% Inhibition @ 10 uM” value was -3.49%.
In the case of COc1ccc(CCNC(=O)c2ccc3nc(N4CCOCC4)sc3c2)cc1OC, the “% Inhibition @ 10 uM” value is reported as 1.03%.
O=C(Cn1cc2c(n1)CCCC2)NCCCN1CCOCC1 was tested, and the “% Inhibition @ 10 uM” value was 6.46%.
CN(C)CCN(C)Cc1c(Cl)cccc1Cl was tested, and the “% Inhibition @ 10 uM” value was -4.04%.
For Cc1ccsc1CN1CCN(C/C=C/c2ccccc2)CC1, the “% Inhibition @ 10 uM” value was -0.261%.
CC(=O)Nc1ccc(S(=O)(=O)Nc2ccc(C)cc2Br)cc1 was tested, and the “% Inhibition @ 10 uM” value was -3.45%.
With CCOC(=O)c1ccc(NC(=O)/C=C/C(=O)O)cc1 the “% Inhibition @ 10 uM” value was 7.8%.
CN1CCC(N2CCN(c3ccccc3)CC2)CC1 was tested, and the “% Inhibition @ 10 uM” value was -0.603%.
For CCSC1=NC(C)(C)Cc2cc(OC)c(OC)cc21, the “% Inhibition @ 10 uM” value was -5.38%.
In the case of CC(=O)Nc1ccc(S(=O)(=O)Nc2ccc(Cl)cc2C)cc1, the “% Inhibition @ 10 uM” value is reported as 3.09%.
For COc1ccc(-c2cc(=O)c3c(ccc4ccccc43)o2)cc1, the “% Inhibition @ 10 uM” value was -7.56%.
CCOc1ccc(C2(O)CSC3=C(C#N)C(c4cccc(OC)c4OC)CC(=O)N32)cc1 (stereo not shown) was tested, and the “% Inhibition @ 10 uM” value was 3.24%.
For Cc1cc(C)nc(NC(=O)c2cccc3ccccc23)c1, the “% Inhibition @ 10 uM” value was -1.42%.
In the case of COc1ccc(/C=C(\NC(=O)c2ccco2)C(=O)Nc2ccc(C(C)=O)cc2)cc1, the “% Inhibition @ 10 uM” value is reported as -5.07%.
With CCN(CC)CCNC(=O)Cn1nc(-c2ccc(Cl)cc2)ccc1=O the “% Inhibition @ 10 uM” value was -0.0542%.
O=C(c1ccccc1Cl)N1CCC(Cc2ccccc2)CC1 was tested, and the “% Inhibition @ 10 uM” value was -4.4%.
CCOc1ccc(S(=O)(=O)N2CCN(c3ccc(Cl)cc3)CC2)cc1 was tested, and the “% Inhibition @ 10 uM” value was 3.21%.
Brc1ccc(Nc2nc(-c3ccccc3)c3cc(Br)ccc3n2)cc1 was tested, and the “% Inhibition @ 10 uM” value was -3.93%.
With CCc1ccc(OC(C)C(=O)N(Cc2ccccc2)C2CCS(=O)(=O)C2)cc1 (stereo not shown) the “% Inhibition @ 10 uM” value was -4.85%.

Source: article PMC6919601, “Identification of Plasmodium dipeptidyl aminopeptidase allosteric inhibitors by high throughput screening” (PLoS ONE, 2019)
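Also: 30 min substrate incubation versus DMSO and 10 µM JCP410 controls.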
